According to paper PMC6769256:
Results are given in words; binding and its absence hold for the method and conditions named. Binding seen in cells or lysates may run through a third protein. Some entries that bind do so weakly or less than the wild type. For some assays here: Tags and fused reporters may be left off the sequences shown.

By UniProt entry, the sequences of proteins in these tests, tags left out.
UniProt A5YKK6: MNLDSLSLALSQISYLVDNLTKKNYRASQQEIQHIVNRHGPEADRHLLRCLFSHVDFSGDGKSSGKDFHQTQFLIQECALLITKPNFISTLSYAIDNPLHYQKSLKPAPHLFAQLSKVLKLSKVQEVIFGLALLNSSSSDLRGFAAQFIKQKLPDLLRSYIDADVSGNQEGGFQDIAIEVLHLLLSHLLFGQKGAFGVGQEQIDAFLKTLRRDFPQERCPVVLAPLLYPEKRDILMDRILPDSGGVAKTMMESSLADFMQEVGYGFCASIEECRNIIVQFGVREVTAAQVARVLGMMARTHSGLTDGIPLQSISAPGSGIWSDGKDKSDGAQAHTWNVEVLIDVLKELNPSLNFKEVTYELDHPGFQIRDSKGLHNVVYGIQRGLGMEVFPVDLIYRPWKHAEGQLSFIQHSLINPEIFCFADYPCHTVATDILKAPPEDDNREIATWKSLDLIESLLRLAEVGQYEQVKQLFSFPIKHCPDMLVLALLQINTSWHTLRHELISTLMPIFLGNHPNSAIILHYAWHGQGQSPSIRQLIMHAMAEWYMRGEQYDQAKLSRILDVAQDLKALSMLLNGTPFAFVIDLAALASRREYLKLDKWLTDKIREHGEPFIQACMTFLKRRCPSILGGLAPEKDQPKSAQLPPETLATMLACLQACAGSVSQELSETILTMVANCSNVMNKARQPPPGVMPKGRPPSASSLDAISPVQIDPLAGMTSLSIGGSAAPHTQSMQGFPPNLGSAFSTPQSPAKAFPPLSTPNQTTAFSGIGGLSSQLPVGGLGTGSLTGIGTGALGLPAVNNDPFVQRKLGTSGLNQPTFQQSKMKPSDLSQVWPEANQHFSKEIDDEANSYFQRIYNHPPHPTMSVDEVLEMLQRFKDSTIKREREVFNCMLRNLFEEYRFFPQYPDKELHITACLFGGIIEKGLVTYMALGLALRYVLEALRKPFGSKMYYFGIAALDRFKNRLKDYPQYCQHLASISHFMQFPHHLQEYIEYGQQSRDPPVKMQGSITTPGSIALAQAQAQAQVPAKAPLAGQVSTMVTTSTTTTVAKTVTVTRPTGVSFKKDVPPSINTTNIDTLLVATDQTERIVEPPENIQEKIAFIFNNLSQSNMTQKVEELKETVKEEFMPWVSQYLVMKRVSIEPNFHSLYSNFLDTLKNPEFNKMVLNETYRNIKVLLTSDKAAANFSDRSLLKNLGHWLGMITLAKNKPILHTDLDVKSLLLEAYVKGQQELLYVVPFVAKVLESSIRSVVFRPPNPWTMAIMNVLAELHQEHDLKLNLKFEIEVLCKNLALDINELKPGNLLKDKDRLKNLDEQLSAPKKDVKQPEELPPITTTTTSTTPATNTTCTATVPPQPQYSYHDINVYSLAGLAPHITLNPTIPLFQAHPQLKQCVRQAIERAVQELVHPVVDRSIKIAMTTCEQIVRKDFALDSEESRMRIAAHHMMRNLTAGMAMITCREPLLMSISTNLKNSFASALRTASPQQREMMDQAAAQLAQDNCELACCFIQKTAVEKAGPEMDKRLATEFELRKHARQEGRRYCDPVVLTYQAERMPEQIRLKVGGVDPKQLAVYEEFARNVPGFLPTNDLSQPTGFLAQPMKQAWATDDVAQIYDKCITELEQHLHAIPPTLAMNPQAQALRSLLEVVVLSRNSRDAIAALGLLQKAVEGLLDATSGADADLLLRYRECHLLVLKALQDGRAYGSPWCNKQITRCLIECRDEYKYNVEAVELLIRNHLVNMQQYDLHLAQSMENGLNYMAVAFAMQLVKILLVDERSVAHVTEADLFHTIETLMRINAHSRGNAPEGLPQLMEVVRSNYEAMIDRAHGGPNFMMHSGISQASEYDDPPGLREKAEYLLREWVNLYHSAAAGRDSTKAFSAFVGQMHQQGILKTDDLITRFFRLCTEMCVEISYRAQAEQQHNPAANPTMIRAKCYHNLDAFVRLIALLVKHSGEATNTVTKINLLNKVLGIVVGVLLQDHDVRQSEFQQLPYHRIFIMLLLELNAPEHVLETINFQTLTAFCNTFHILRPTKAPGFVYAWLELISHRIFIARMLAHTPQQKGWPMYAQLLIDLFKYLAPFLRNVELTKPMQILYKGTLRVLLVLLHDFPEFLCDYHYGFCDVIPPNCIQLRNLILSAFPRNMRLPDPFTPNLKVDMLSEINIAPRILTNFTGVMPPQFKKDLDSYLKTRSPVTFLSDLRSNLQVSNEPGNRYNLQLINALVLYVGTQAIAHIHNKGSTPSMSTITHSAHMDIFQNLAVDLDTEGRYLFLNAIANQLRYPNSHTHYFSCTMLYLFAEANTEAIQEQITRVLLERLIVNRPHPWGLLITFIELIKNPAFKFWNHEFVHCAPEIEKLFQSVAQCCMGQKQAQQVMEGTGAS
UniProt O75175: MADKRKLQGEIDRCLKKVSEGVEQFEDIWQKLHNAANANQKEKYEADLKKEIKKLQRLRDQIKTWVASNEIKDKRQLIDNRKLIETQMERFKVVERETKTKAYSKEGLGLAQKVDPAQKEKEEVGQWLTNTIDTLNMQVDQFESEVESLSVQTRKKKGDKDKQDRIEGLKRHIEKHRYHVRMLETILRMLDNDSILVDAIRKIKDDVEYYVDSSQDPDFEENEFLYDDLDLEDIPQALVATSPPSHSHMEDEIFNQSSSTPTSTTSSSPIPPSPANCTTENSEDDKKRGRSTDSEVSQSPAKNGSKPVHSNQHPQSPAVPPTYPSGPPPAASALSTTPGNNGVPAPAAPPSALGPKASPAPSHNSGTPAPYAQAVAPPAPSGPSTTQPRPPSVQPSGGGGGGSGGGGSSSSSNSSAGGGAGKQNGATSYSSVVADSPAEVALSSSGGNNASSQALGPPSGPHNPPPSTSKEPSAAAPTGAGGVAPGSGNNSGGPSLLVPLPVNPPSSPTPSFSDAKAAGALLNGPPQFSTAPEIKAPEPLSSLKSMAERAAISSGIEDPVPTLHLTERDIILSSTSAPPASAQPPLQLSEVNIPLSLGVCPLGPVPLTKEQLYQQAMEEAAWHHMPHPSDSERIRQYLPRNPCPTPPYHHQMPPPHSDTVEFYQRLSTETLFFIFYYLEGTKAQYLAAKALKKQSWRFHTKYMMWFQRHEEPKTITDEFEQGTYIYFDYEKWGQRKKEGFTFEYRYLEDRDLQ

T1: GFP-tagged Hs HELZ-C (residues P1051-K1942) (human) (UniProt P42694)
T1 sequence: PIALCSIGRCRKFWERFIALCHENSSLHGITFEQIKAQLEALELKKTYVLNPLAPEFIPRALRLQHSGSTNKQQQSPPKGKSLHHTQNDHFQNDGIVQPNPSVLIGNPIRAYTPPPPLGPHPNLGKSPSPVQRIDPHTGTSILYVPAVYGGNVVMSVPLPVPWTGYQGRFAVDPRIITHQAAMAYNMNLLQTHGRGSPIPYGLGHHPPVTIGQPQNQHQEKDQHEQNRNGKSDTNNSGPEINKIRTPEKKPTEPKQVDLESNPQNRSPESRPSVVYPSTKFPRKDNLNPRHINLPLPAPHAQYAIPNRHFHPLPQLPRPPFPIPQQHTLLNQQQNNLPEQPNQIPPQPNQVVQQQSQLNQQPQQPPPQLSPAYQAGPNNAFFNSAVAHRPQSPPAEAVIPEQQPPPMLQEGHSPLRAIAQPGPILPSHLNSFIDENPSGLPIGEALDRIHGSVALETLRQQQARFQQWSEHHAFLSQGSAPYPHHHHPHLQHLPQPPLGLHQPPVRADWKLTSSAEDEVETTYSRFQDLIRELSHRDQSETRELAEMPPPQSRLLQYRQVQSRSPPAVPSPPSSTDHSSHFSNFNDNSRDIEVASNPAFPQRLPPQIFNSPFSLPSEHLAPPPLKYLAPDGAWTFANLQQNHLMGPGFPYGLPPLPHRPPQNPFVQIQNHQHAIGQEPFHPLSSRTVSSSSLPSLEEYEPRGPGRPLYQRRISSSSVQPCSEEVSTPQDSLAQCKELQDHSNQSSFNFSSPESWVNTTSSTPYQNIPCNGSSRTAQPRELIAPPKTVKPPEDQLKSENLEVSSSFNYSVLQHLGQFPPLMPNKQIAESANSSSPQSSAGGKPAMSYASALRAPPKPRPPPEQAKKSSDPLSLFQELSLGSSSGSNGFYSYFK

T2: GFP-tagged Hs HELZ-N (residues M1-D1050) (human) (UniProt P42694)
T2 sequence: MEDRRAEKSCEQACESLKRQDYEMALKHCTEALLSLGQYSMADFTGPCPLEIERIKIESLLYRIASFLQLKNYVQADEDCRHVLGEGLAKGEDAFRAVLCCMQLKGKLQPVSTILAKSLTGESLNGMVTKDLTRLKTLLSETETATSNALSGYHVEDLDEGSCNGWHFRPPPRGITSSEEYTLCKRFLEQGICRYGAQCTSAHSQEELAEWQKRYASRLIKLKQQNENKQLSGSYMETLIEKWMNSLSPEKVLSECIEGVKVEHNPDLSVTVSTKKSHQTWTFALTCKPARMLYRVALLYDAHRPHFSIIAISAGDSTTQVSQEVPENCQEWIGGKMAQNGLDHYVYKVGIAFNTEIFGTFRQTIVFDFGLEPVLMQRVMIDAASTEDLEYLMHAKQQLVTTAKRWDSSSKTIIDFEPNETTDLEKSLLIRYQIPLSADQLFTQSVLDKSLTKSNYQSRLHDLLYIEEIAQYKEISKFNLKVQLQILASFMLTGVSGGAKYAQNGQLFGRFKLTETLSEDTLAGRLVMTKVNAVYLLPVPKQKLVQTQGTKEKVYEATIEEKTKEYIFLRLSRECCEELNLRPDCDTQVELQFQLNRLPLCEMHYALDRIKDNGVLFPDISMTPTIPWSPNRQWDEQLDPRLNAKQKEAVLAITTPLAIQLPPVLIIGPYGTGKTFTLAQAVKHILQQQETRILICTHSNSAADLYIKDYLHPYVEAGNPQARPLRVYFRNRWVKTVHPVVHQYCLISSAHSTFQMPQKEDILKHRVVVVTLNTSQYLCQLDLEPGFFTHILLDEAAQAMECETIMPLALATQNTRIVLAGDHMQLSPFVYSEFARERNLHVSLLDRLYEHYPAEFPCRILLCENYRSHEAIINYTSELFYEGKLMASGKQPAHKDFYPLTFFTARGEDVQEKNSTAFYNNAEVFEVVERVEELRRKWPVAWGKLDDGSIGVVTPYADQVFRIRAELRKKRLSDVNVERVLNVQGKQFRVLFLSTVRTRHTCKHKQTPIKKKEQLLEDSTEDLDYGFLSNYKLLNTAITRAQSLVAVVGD


Experiments:
[1] = biological target: T1, GFP-tagged Hs HELZ-C (residues P1051-K1942) (human); test: co-IP; GFP immunoprecipitation from HEK293T cells transfected with GFP-tagged HELZ (full-length, fragments or F1107V); endogenous NOT1, NOT3, PABPC1 detected by Western blot; lysates treated with RNase A before IP
[2] = biological target: T2, GFP-tagged Hs HELZ-N (residues M1-D1050) (human); test: as above
[3] = biological target: GFP-tagged Hs HELZ (helicase with zinc-finger), full-length (human) (UniProt P42694); test: as above
[4] = biological target: GFP-tagged Hs HELZ (helicase with zinc-finger), full-length (human) (UniProt P42694); test: co-IP; GFP immunoprecipitation from HEK293T cells co-transfected with GFP-Hs HELZ (bait) and an HA-tagged protein; lysates treated with RNase A before IP; Western blot

binding [1]	binding [2]	binding [3]	binding [4]	Molecule
binds	no binding	binds		endogenous NOT1 (CCR4–NOT complex scaffold protein) (from UniProt A5YKK6 1-2376)
binds	no binding	binds		endogenous NOT3 (CCR4–NOT complex protein) (from UniProt O75175 1-753)
			binds	HA-tagged Hs EDC4 (protein, UniProt Q6P2E9 1-1401) MASCASIDIEDATQHLRDILKLDRPAGGPSAESPRPSSAYNGDLNGLLVPDPLCSGDSTSANKTGLRTMPPINLQEKQVICLSGDDSSTCIGILAKEVEIVASSDSSISSKARGSNKVKIQPVAKYDWEQKYYYGNLIAVSNSFLAYAIRAANNGSAMVRVISVSTSERTLLKGFTGSVADLAFAHLNSPQLACLDEAGNLFVWRLALVNGKIQEEILVHIRQPEGTPLNHFRRIIWCPFIPEESEDCCEESSPTVALLHEDRAEVWDLDMLRSSHSTWPVDVSQIKQGFIVVKGHSTCLSEGALSPDGTVLATASHDGYVKFWQIYIEGQDEPRCLHEWKPHDGRPLSCLLFCDNHKKQDPDVPFWRFLITGADQNRELKMWCTVSWTCLQTIRFSPDIFSSVSVPPSLKVCLDLSAEYLILSDVQRKVLYVMELLQNQEEGHACFSSISEFLLTHPVLSFGIQVVSRCRLRHTEVLPAEEENDSLGADGTHGAGAMESAAGVLIKLFCVHTKALQDVQIRFQPQLNPDVVAPLPTHTAHEDFTFGESRPELGSEGLGSAAHGSQPDLRRIVELPAPADFLSLSSETKPKLMTPDAFMTPSASLQQITASPSSSSSGSSSSSSSSSSSLTAVSAMSSTSAVDPSLTRPPEELTLSPKLQLDGSLTMSSSGSLQASPRGLLPGLLPAPADKLTPKGPGQVPTATSALSLELQEVEPLGLPQASPSRTRSPDVISSASTALSQDIPEIASEALSRGFGSSAPEGLEPDSMASAASALHLLSPRPRPGPELGPQLGLDGGPGDGDRHNTPSLLEAALTQEASTPDSQVWPTAPDITRETCSTLAESPRNGLQEKHKSLAFHRPPYHLLQQRDSQDASAEQSDHDDEVASLASASGGFGTKVPAPRLPAKDWKTKGSPRTSPKLKRKSKKDDGDAAMGSRLTEHQVAEPPEDWPALIWQQQRELAELRHSQEELLQRLCTQLEGLQSTVTGHVERALETRHEQEQRRLERALAEGQQRGGQLQEQLTQQLSQALSSAVAGRLERSIRDEIKKTVPPCVSRSLEPMAGQLSNSVATKLTAVEGSMKENISKLLKSKNLTDAIARAAADTLQGPMQAAYREAFQSVVLPAFEKSCQAMFQQINDSFRLGTQEYLQQLESHMKSRKAREQEAREPVLAQLRGLVSTLQSATEQMAATVAGSVRAEVQHQLHVAVGSLQESILAQVQRIVKGEVSVALKEQQAAVTSSIMQAMRSAAGTPVPSAHLDCQAQQAHILQLLQQGHLNQAFQQALTAADLNLVLYVCETVDPAQVFGQPPCPLSQPVLLSLIQQLASDLGTRTDLKLSYLEEAVMHLDHSDPITRDHMGSVMAQVRQKLFQFLQAEPHNSLGKAARRLSLMLHGLVTPSLP
			binds	HA-tagged Hs PatL1 (protein, UniProt Q86TB9 1-770) MFRYESLEDCPLDEDEDAFQGLGEEDEEIDQFNDDTFGSGAVDDDWQEAHERLAELEEKLPVAVNEQTGNGERDEMDLLGDHEENLAERLSKMVIENELEDPAIMRAVQTRPVLQPQPGSLNSSIWDGSEVLRRIRGPLLAQEMPTVSVLEYALPQRPPQGPEDDRDLSERALPRRSTSPIIGSPPVRAVPIGTPPKQMAVPSFTQQILCPKPVHVRPPMPPRYPAPYGERMSPNQLCSVPNSSLLGHPFPPSVPPVLSPLQRAQLLGGAQLQPGRMSPSQFARVPGFVGSPLAAMNPKLLQGRVGQMLPPAPGFRAFFSAPPSATPPPQQHPPGPGPHLQNLRSQAPMFRPDTTHLHPQHRRLLHQRQQQNRSQHRNLNGAGDRGSHRSSHQDHLRKDPYANLMLQREKDWVSKIQMMQLQSTDPYLDDFYYQNYFEKLEKLSAAEEIQGDGPKKERTKLITPQVAKLEHAYKPVQFEGSLGKLTVSSVNNPRKMIDAVVTSRSEDDETKEKQVRDKRRKTLVIIEKTYSLLLDVEDYERRYLLSLEEERPALMDDRKHKICSMYDNLRGKLPGQERPSDDHFVQIMCIRKGKRMVARILPFLSTEQAADILMTTARNLPFLIKKDAQDEVLPCLLSPFSLLLYHLPSVSITSLLRQLMNLPQSAATPALSNPHLTAVLQNKFGLSLLLILLSRGEDLQSSDPATESTQNNQWTEVMFMATRELLRIPQAALAKPISIPTNLVSLFSRYVDRQKLNLLETKLQLVQGIR
